{"source": "the supplement of paper PMC8728848", "binders": {"B1": {"name": "PpFlo3 (Pichia pastoris) (protein)", "chain": "MGSSHHHHHHSSGLVPRGSHMQESGNGTTSDTAYACDIGATPFDGFNATIYQYQASDDNSIQDPVFMSTGYLQRNQLHSTTGVTNPGFNIFTAGVATTTLYGIPNVNYQNMLLELKGYFRADASGNYGLSLRNIDDSAILFFGRETAFECCNENLIPLDEAPTDYSLFTIKEGEASTNPDSYTYTQYLEAGRYYPVRTFFANIRTRAVFNFTMTLPDGSELTDFQNYIFQFGALNQ"}}, "assay_in_all_cases": "glycan array binding signal (z-score within array); higher = stronger binding", "conditions_in_all_cases": "glycan notation: IUPAC condensed, linker removed", "key": {"[1]": {"target": "GlcNAc(a1-4)Gal(b1-4)GlcNAc(b1-3)Gal(b1-4)GlcNAc", "procedure,_shortened": "(§1)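 Negative Z-scores can be read as non-binding. The Z-score is calculated within each array and then averaged across arrays of one protein sequence at different concentrations or buffers and across linkers. Arrays, 3228 in all, were curated from the Consortium for Functional Glycomics database and kept only where the protein sequence was available.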"}, "[2]": {"target": "GlcNAc(a1-4)Gal(b1-4)GlcNAc(b1-3)Gal(b1-4)GlcNAc(b1-3)Gal(b1-4)GlcNAc", "procedure,_shortened": "as §1"}, "[3]": {"target": "GlcNAc(a1-4)Gal(b1-4)GlcNAc(b1-3)Gal(b1-4)[Fuc(a1-3)]GlcNAc(b1-3)Gal(b1-4)[Fuc(a1-3)]GlcNAc", "procedure,_shortened": "as §1"}, "[4]": {"target": "GlcNAc(a1-6)Gal(b1-4)GlcNAc", "procedure,_shortened": "as §1"}, "[5]": {"target": "GlcNAc(b1-2)Gal(b1-3)GalNAc", "procedure,_shortened": "as §1"}, "[6]": {"target": "GlcNAc(b1-2)Man(a1-3)[GlcNAc(b1-2)Man(a1-6)]Man(b1-4)GlcNAc(b1-4)GlcNAc", "procedure,_shortened": "as §1"}, "[7]": {"target": "GlcNAc(b1-2)Man(a1-3)[GlcNAc(b1-2)Man(a1-6)]Man(b1-4)GlcNAc(b1-4)[Fuc(a1-6)]GlcNAc", "procedure,_shortened": "as §1"}, "[8]": {"target": "GlcNAc(b1-2)Man(a1-3)[GlcNAc(b1-4)][GlcNAc(b1-2)Man(a1-6)]Man(b1-4)GlcNAc(b1-4)GlcNAc", "procedure,_shortened": "as §1"}, "[9]": {"target": "GlcNAc(b1-2)[GlcNAc(b1-4)]Man(a1-3)[GlcNAc(b1-2)Man(a1-6)]Man(b1-4)GlcNAc(b1-4)GlcNAc", "procedure,_shortened": "as §1"}, "[10]": {"target": "GlcNAc(b1-2)[GlcNAc(b1-4)]Man(a1-3)[GlcNAc(b1-4)][GlcNAc(b1-2)Man(a1-6)]Man(b1-4)GlcNAc(b1-4)GlcNAc", "procedure,_shortened": "as §1"}, "[11]": {"target": "GlcNAc(b1-2)[GlcNAc(b1-4)]Man(a1-3)[GlcNAc(b1-4)][GlcNAc(b1-2)[GlcNAc(b1-6)]Man(a1-6)]Man(b1-4)GlcNAc(b1-4)GlcNAc", "procedure,_shortened": "as §1"}, "[12]": {"target": "GlcNAc(b1-2)[GlcNAc(b1-6)]Man(a1-6)[GlcNAc(b1-2)Man(a1-3)]Man(b1-4)GlcNAc(b1-4)GlcNAc", "procedure,_shortened": "as §1"}, "[13]": {"target": "GlcNAc(b1-2)[GlcNAc(b1-6)]Man(a1-6)[GlcNAc(b1-2)Man(a1-3)][GlcNAc(b1-4)]Man(b1-4)GlcNAc(b1-4)GlcNAc", "procedure,_shortened": "as §1"}, "GlcNAc(b1-3)Gal": {"target": "GlcNAc(b1-3)Gal", "procedure,_shortened": "as §1"}, "[14]": {"target": "GlcNAc(b1-3)Gal(b1-3)GalNAc", "procedure,_shortened": "as §1"}, "GlcNAc(b1-3)Gal(b1-4)Glc": {"target": "GlcNAc(b1-3)Gal(b1-4)Glc", "procedure,_shortened": "as §1"}, "[15]": {"target": "GlcNAc(b1-3)Gal(b1-4)GlcNAc", "procedure,_shortened": "as §1"}, "[16]": {"target": "GlcNAc(b1-3)Gal(b1-4)GlcNAc(b1-3)Gal(b1-4)GlcNAc", "procedure,_shortened": "as §1"}, "GlcNAc(b1-3)GalNAc": {"target": "GlcNAc(b1-3)GalNAc", "procedure,_shortened": "as §1"}, "GlcNAc(b1-3)Man": {"target": "GlcNAc(b1-3)Man", "procedure,_shortened": "as §1"}, "[17]": {"target": "GlcNAc(b1-3)[GlcNAc(b1-4)][GlcNAc(b1-6)]GlcNAc", "procedure,_shortened": "as §1"}, "[18]": {"target": "GlcNAc(b1-3)[GlcNAc(b1-6)]Gal(b1-4)GlcNAc", "procedure,_shortened": "as §1"}, "[19]": {"target": "GlcNAc(b1-3)[GlcNAc(b1-6)]GalNAc", "procedure,_shortened": "as §1"}, "[20]": {"target": "GlcNAc(b1-4)Gal(b1-4)GlcNAc", "procedure,_shortened": "as §1"}, "GlcNAc(b1-4)GlcNAc": {"target": "GlcNAc(b1-4)GlcNAc", "procedure,_shortened": "as §1"}, "[21]": {"target": "GlcNAc(b1-4)GlcNAc(b1-4)GlcNAc", "procedure,_shortened": "as §1"}, "[22]": {"target": "GlcNAc(b1-4)GlcNAc(b1-4)GlcNAc(b1-4)GlcNAc(b1-4)GlcNAc", "procedure,_shortened": "as §1"}, "[23]": {"target": "GlcNAc(b1-4)GlcNAc(b1-4)GlcNAc(b1-4)GlcNAc(b1-4)GlcNAc(b1-4)GlcNAc", "procedure,_shortened": "as §1"}, "[24]": {"target": "GlcNAc(b1-4)[GlcNAc(b1-6)]GalNAc", "procedure,_shortened": "as §1"}, "[25]": {"target": "GlcNAc(b1-6)Gal(b1-4)GlcNAc", "procedure,_shortened": "as §1"}, "GlcNAc(b1-6)GalNAc": {"target": "GlcNAc(b1-6)GalNAc", "procedure,_shortened": "as §1"}, "GlcNAc3Prop(b1-4)GlcNAc": {"target": "GlcNAc3Prop(b1-4)GlcNAc", "procedure,_shortened": "as §1"}, "[26]": {"target": "GlcNAc6S(b1-3)Gal(b1-4)GlcNAc", "procedure,_shortened": "as §1"}, "Kdn(a2-3)Gal(b1-3)GalNAc": {"target": "Kdn(a2-3)Gal(b1-3)GalNAc", "procedure,_shortened": "as §1"}, "Kdn(a2-3)Gal(b1-3)GlcNAc": {"target": "Kdn(a2-3)Gal(b1-3)GlcNAc", "procedure,_shortened": "as §1"}, "Kdn(a2-3)Gal(b1-4)Glc": {"target": "Kdn(a2-3)Gal(b1-4)Glc", "procedure,_shortened": "as §1"}, "Kdn(a2-3)Gal(b1-4)GlcNAc": {"target": "Kdn(a2-3)Gal(b1-4)GlcNAc", "procedure,_shortened": "as §1"}, "[27]": {"target": "Kdn(a2-3)Gal(b1-4)[Fuc(a1-3)]GlcNAc", "procedure,_shortened": "as §1"}, "Kdn(a2-6)Gal(b1-4)GlcNAc": {"target": "Kdn(a2-6)Gal(b1-4)GlcNAc", "procedure,_shortened": "as §1"}, "[28]": {"target": "Man(a1-2)Man(a1-2)Man(a1-3)Man", "procedure,_shortened": "as §1"}, "[29]": {"target": "Man(a1-2)Man(a1-2)Man(a1-6)[Man(a1-3)]Man", "procedure,_shortened": "as §1"}, "Man(a1-2)Man(a1-3)Man": {"target": "Man(a1-2)Man(a1-3)Man", "procedure,_shortened": "as §1"}, "[30]": {"target": "Man(a1-2)Man(a1-3)[Man(a1-2)Man(a1-6)]Man", "procedure,_shortened": "as §1"}, "[31]": {"target": "Man(a1-2)Man(a1-3)[Man(a1-2)Man(a1-6)]Man(a1-6)[Man(a1-2)Man(a1-2)Man(a1-3)]Man", "procedure,_shortened": "as §1"}, "[32]": {"target": "Man(a1-2)Man(a1-3)[Man(a1-2)Man(a1-6)]Man(a1-6)[Man(a1-2)Man(a1-2)Man(a1-3)]Man(b1-4)GlcNAc(b1-4)GlcNAc", "procedure,_shortened": "as §1"}}, "note": "This is one part of the list.", "data": [{"binder": "B1", "values": [{"measurement": "glycan array binding signal (z-score)", "setting": "[1]", "result": -0.155}, {"measurement": "glycan array binding signal (z-score)", "setting": "[2]", "result": -0.283}, {"measurement": "glycan array binding signal (z-score)", "setting": "[3]", "result": -0.296}, {"measurement": "glycan array binding signal (z-score)", "setting": "[4]", "result": 0.341}, {"measurement": "glycan array binding signal (z-score)", "setting": "[5]", "result": -0.287}, {"measurement": "glycan array binding signal (z-score)", "setting": "[6]", "result": 3.52}, {"measurement": "glycan array binding signal (z-score)", "setting": "[7]", "result": -0.28}, {"measurement": "glycan array binding signal (z-score)", "setting": "[8]", "result": 2.27}, {"measurement": "glycan array binding signal (z-score)", "setting": "[9]", "result": 4.67}, {"measurement": "glycan array binding signal (z-score)", "setting": "[10]", "result": 2.14}, {"measurement": "glycan array binding signal (z-score)", "setting": "[11]", "result": 1.25}, {"measurement": "glycan array binding signal (z-score)", "setting": "[12]", "result": -0.22}, {"measurement": "glycan array binding signal (z-score)", "setting": "[13]", "result": 1.07}, {"measurement": "glycan array binding signal (z-score)", "setting": "GlcNAc(b1-3)Gal", "result": -0.276}, {"measurement": "glycan array binding signal (z-score)", "setting": "[14]", "result": -0.273}, {"measurement": "glycan array binding signal (z-score)", "setting": "GlcNAc(b1-3)Gal(b1-4)Glc", "result": -0.291}, {"measurement": "glycan array binding signal (z-score)", "setting": "[15]", "result": -0.259}, {"measurement": "glycan array binding signal (z-score)", "setting": "[16]", "result": -0.072}, {"measurement": "glycan array binding signal (z-score)", "setting": "GlcNAc(b1-3)GalNAc", "result": -0.266}, {"measurement": "glycan array binding signal (z-score)", "setting": "GlcNAc(b1-3)Man", "result": 6.76}, {"measurement": "glycan array binding signal (z-score)", "setting": "[17]", "result": -0.266}, {"measurement": "glycan array binding signal (z-score)", "setting": "[18]", "result": -0.274}, {"measurement": "glycan array binding signal (z-score)", "setting": "[19]", "result": 1.75}, {"measurement": "glycan array binding signal (z-score)", "setting": "[20]", "result": 0.533}, {"measurement": "glycan array binding signal (z-score)", "setting": "GlcNAc(b1-4)GlcNAc", "result": 0.856}, {"measurement": "glycan array binding signal (z-score)", "setting": "[21]", "result": -0.213}, {"measurement": "glycan array binding signal (z-score)", "setting": "[22]", "result": 0.71}, {"measurement": "glycan array binding signal (z-score)", "setting": "[23]", "result": -0.284}, {"measurement": "glycan array binding signal (z-score)", "setting": "[24]", "result": -0.243}, {"measurement": "glycan array binding signal (z-score)", "setting": "[25]", "result": -0.296}, {"measurement": "glycan array binding signal (z-score)", "setting": "GlcNAc(b1-6)GalNAc", "result": 0.169}, {"measurement": "glycan array binding signal (z-score)", "setting": "GlcNAc3Prop(b1-4)GlcNAc", "result": -0.285}, {"measurement": "glycan array binding signal (z-score)", "setting": "[26]", "result": -0.095}, {"measurement": "glycan array binding signal (z-score)", "setting": "Kdn(a2-3)Gal(b1-3)GalNAc", "result": -0.267}, {"measurement": "glycan array binding signal (z-score)", "setting": "Kdn(a2-3)Gal(b1-3)GlcNAc", "result": -0.273}, {"measurement": "glycan array binding signal (z-score)", "setting": "Kdn(a2-3)Gal(b1-4)Glc", "result": -0.287}, {"measurement": "glycan array binding signal (z-score)", "setting": "Kdn(a2-3)Gal(b1-4)GlcNAc", "result": -0.237}, {"measurement": "glycan array binding signal (z-score)", "setting": "[27]", "result": -0.277}, {"measurement": "glycan array binding signal (z-score)", "setting": "Kdn(a2-6)Gal(b1-4)GlcNAc", "result": -0.151}, {"measurement": "glycan array binding signal (z-score)", "setting": "[28]", "result": -0.194}, {"measurement": "glycan array binding signal (z-score)", "setting": "[29]", "result": -0.274}, {"measurement": "glycan array binding signal (z-score)", "setting": "Man(a1-2)Man(a1-3)Man", "result": -0.203}, {"measurement": "glycan array binding signal (z-score)", "setting": "[30]", "result": -0.266}, {"measurement": "glycan array binding signal (z-score)", "setting": "[31]", "result": -0.301}, {"measurement": "glycan array binding signal (z-score)", "setting": "[32]", "result": -0.266}]}]}
